{
  "source": "PubChem BioAssay AID1345083",
  "about": "(National Center for Advancing Translational Sciences (NCATS), 2018)",
  "note": "The campaign covered roughly 94,000 compounds. About 6,200 (6.6%) were called active. The inconclusive results got no clear call from the source; some entries with a clear call stand among them for comparison. The call rests on the fitted dose curve; in most records, active means well fitted inhibition curve with a large enough effect; inconclusive means small, poorly fitted or top-dose-only effect; inactive means flat fitted curve, though single readings scatter. Potencies beside an inconclusive call are fits to weak or partial responses and may not hold up. On the % scale 0 is the no-effect control and ±100 the full control effect; potency means the concentration at half of the fitted maximal effect; tags describe the fitted curve by direction and shape.",
  "data": [
    {"test": "Cytotoxic Profiling in HEK 293 Cell Line of Diverse Libraries Using Quantitative High-Throughput Screening; further: nearly all actives have a fitted effect of over 60% in size", "details": "HEK 293 viability, ATP luminescence (CellTiter-Glo), 48-72 h; activity change, negative = cytotoxicity: at 115 µM (top of the series) unless noted; series mostly up to 115 µM", "in_short": "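CellTiter-Glo luminescence (cellular ATP) was read after 48 or 72 hr of compound exposure at 37 degree Celsius. Cells were HEK 293 plated at 250 cells/well.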", "values": [
      {"smiles": "O=C(NC1CCN(Cc2cccc(-c3ccc(F)c(F)c3)c2)CC1)c1ccccc1Cl", "Potency": "inconclusive: 50.1 µM [inhibitor, partial curve, poor fit]"},
      {"smiles": "CN(CC(=O)N1CCN(c2ccccc2C#N)C(=O)C1)Cc1ccccc1F", "activity change, negative = cytotoxicity": "inactive: -8.01%"},
      {"smiles": "C#CCNC(=O)C1CCCN(c2nccc(Nc3ccccc3F)n2)C1", "note": "(configuration not stated)", "Potency": "inconclusive: 56.2 µM [inhibitor, partial curve, poor fit]"},
      {"smiles": "Cc1ccccc1N1CCN(C(=O)c2ccc3c(c2)N(C)C2CCCCCN2C3=O)CC1", "note": "(configuration not stated)", "Potency": "active: 44.7 µM"},
      {"smiles": "COc1ccccc1CC(=O)NCc1nnc2c(-c3nc(C(C)C)no3)cccn12", "activity change, negative = cytotoxicity": "inactive: -10%"},
      {"smiles": "C=CCN1C[C@H]2COc3cc(OC)ccc3[C@H]2N(C(=O)c2ccccc2)CCC1=O", "activity change, negative = cytotoxicity": "inactive: -23.7%"},
      {"smiles": "CCCCN(C)C(=O)CC1CCN(c2ccnc(OC)n2)CC1", "Potency": "inconclusive: 39.8 µM [inhibitor, partial curve, poor fit]"},
      {"smiles": "COc1cccc(-c2cccc(C(=O)N3CCN(C(C)=O)CC3)c2)c1", "activity change, negative = cytotoxicity": "inactive: -14.9% [at 172 µM]"},
      {"smiles": "CCC1=C(C(=O)OC)C(c2cccc(C)c2)N2C(CC(=O)NCC3CC3)=CSC2=N1", "note": "(configuration not stated)", "Potency": "inconclusive: 56.2 µM [inhibitor, partial curve, poor fit]"},
      {"smiles": "O=C(Cc1ccccn1)NC1CCN(Cc2ccc(-c3ccsc3)cc2)C1", "note": "(configuration not stated)", "Potency": "inconclusive: 79.4 µM [inhibitor, partial curve, poor fit]"},
      {"smiles": "CNC(=O)c1cccc(-c2cnc(NC(=O)c3ccncc3)c3c2CCO3)c1", "activity change, negative = cytotoxicity": "inactive: -14.9% [at 172 µM]"},
      {"smiles": "O=C(c1cc(CN2CCOCC2)on1)N1CCC2(CC1)NCCc1c2[nH]c2ccccc12", "Potency": "active: 31.6 µM"},
      {"smiles": "CCc1noc(-c2ccn3c(CNC(=O)C4CCCC4)nnc3c2)n1", "Potency": "inconclusive: 89.1 µM [inhibitor, single point]"},
      {"smiles": "Cc1noc([C@H]2CCN(C(=O)COc3ccc(F)cc3)C[C@H]2NC(=O)C2CC2)n1", "Potency": "inconclusive: 100 µM [inhibitor, single point]"},
      {"smiles": "COc1ccc(OC)c(S(=O)(=O)N2CC(CNC(=O)C3CC3)C3(CCCCC3)C2)c1", "note": "(configuration not stated)", "Potency": "inconclusive: 100 µM [inhibitor, single point]"},
      {"smiles": "COc1cccc(CN2C[C@H]3[C@H](C2)[S+](=O)([O-])C(C)(C)C(=O)N3Cc2ccccc2)c1", "Potency": "inconclusive: 112 µM [inhibitor, partial curve, poor fit]"},
      {"smiles": "Cc1ccc(-c2cccc(CN3CCCC3C(=O)N3CCN(c4ncccn4)CC3)c2)cc1Cl", "note": "(configuration not stated)", "Potency": "active: 14.1 µM"},
      {"smiles": "Cc1cn2nc(C(=O)Nc3ccc(C(=O)N4CCCC4)cc3)cc2c(=O)[nH]1", "Potency": "inconclusive: 89.1 µM [inhibitor, single point]"},
      {"smiles": "Cn1ncc2c(C(=O)NCCc3ccccc3)cc(-c3ccc(F)cc3)nc21", "Potency": "inconclusive: 50.1 µM [inhibitor, partial curve]"},
      {"smiles": "COc1cccc(S(=O)(=O)N2CCC3(CC2)CNC(C(=O)O)C3)c1", "note": "(configuration not stated)", "activity change, negative = cytotoxicity": "inactive: -1.06%"},
      {"smiles": "Cc1ccc2nc(CO[C@H]3CN(Cc4ccc5c(c4)OCO5)C[C@H]3F)[nH]c2c1", "Potency": "inconclusive: 79.4 µM [inhibitor, partial curve]"},
      {"smiles": "NCc1cccc(-c2ccc(OC(F)(F)F)cc2)c1", "Potency": "active: 39.8 µM"},
      {"smiles": "CN1C(=O)[C@@H]2C[C@@H](CN2Cc2nccs2)Oc2ccccc21", "Potency": "inconclusive: 126 µM [inhibitor, single point]"},
      {"smiles": "FC(F)(F)c1ccc(-c2ncc[nH]2)cc1", "Potency": "inconclusive: 89.1 µM [inhibitor, partial curve]"},
      {"smiles": "COCCCNC(=O)c1ccc2oc(-c3cccnc3Cl)nc2c1", "activity change, negative = cytotoxicity": "inactive: -27.8%"},
      {"smiles": "CNC(=O)CN1C(=O)CN(C(=O)c2ccc(F)cc2)CCC(OC)c2ccccc21", "note": "(configuration not stated)", "activity change, negative = cytotoxicity": "inactive: -21.5%"},
      {"smiles": "O=C(NC1CCCC1)N1CCC(C(=O)N2CCCC2c2nc3ccncc3[nH]2)CC1", "note": "(configuration not stated)", "outcome": "inactive"},
      {"smiles": "CC(C)c1noc(-c2cn(C3CCN(C(=O)c4ccc(Cl)cc4)C3)nn2)n1", "note": "(configuration not stated)", "Potency": "inconclusive: 20 µM [inhibitor, partial curve, poor fit]"},
      {"smiles": "Cc1cccc(C)c1CN1CC2(COCC1=O)CN(c1ccc(C(F)(F)F)cn1)C2", "Potency": "inconclusive: 70.8 µM [inhibitor, partial curve, poor fit]"},
      {"smiles": "Cc1ccc(OCCC2CCN(C(=O)Cc3cccnc3)C2)cc1", "note": "(configuration not stated)", "Potency": "inconclusive: 89.1 µM [inhibitor, partial curve, poor fit]"},
      {"smiles": "COCc1noc([C@@H]2CC(F)(F)CN2S(=O)(=O)c2ccccc2)n1", "outcome": "inactive"},
      {"smiles": "Cc1cccnc1CN(C)c1ccc(C(=O)NCc2noc(C(C)C)n2)cn1", "Potency": "inconclusive: 22.4 µM [inhibitor, full curve, poor fit]"},
      {"smiles": "O=C1NC(C(=O)N2CCN(c3ccccn3)CC2)Cn2cccc21", "note": "(configuration not stated)", "activity change, negative = cytotoxicity": "inactive: -9.53%"},
      {"smiles": "CNC(=O)[C@@H]1CN(C(=O)c2nccc3ccccc23)C[C@H]1CO", "activity change, negative = cytotoxicity": "inactive: -0.932%"},
      {"smiles": "O=C(NCC1CCCCC1)c1cccnc1N1CC2CC(C1)[C@H]1CCCC(=O)N1C2", "note": "(some centres not stated)", "activity change, negative = cytotoxicity": "inactive: -0.883%"},
      {"smiles": "O=C(Nc1ccc(F)cc1)C1CN(c2cccc(Cl)c2)C(=O)N1", "note": "(configuration not stated)", "Potency": "inconclusive: 100 µM [inhibitor, partial curve]"},
      {"smiles": "O=C(Nc1ccccc1F)N1CCOC(c2ccc(Cl)cc2)C1", "note": "(configuration not stated)", "Potency": "inconclusive: 56.2 µM [inhibitor, partial curve, poor fit]"},
      {"smiles": "CNc1ccc(-c2noc([C@@H]3CCCN3Cc3cnc4ccccc4c3)n2)cn1", "Potency": "inconclusive: 100 µM [inhibitor, partial curve, poor fit]"},
      {"smiles": "CC1(C)Cc2cc(CNC(=O)c3cccc(C4CCNC4)c3)ccc2O1", "note": "(configuration not stated)", "Potency": "inconclusive: 56.2 µM [inhibitor, partial curve, poor fit]"},
      {"smiles": "Cc1nn(-c2ccc(C(F)(F)F)cc2)c(C)c1[C@@H]1C=C[C@@H](NC(=O)NC(C)C)C1", "Potency": "active: 35.5 µM"},
      {"smiles": "CCC1(N2CCN(S(=O)(=O)c3cccc(C#N)c3)CC2)CCN(C(=O)C(C)C)C1", "note": "(configuration not stated)", "Potency": "inconclusive: 89.1 µM [inhibitor, single point]"},
      {"smiles": "O=C(c1ccc(F)cc1)N1CCC(n2c(=O)[nH]c3ccccc32)CC1", "Potency": "inconclusive: 100 µM [inhibitor, partial curve]"},
      {"smiles": "CN1CC(C(=O)N2CCc3c(nc(-c4ccncc4)nc3N(C)C)C2)CC1=O", "note": "(configuration not stated)", "activity change, negative = cytotoxicity": "inactive: -4.99%"},
      {"smiles": "O=C(C1CCCN1Cc1ccc(-c2cncnc2)cc1)N1CCC(c2ccccc2)CC1", "note": "(configuration not stated)", "Potency": "inconclusive: 79.4 µM [inhibitor, partial curve]"},
      {"smiles": "COc1ccc2nc(C[C@@H]3C[C@@H](C(C)C)[C@H](CN)C=C3C)[nH]c2c1", "Potency": "inconclusive: 70.8 µM [inhibitor, partial curve, poor fit]"},
      {"smiles": "COc1ccc(-c2cc(-c3ccc(F)cc3)cn3cncc23)cc1", "Potency": "active: 100 µM"},
      {"smiles": "CN(C)Cc1nnc(C2CC(NC(=O)c3cc4ncccn4n3)C2)n1C", "note": "(configuration not stated)", "Potency": "inactive"},
      {"smiles": "Cc1cc2nc(CO[C@H]3CN(Cc4ccccc4F)C[C@H]3F)[nH]c2cc1C", "Potency": "inconclusive: 100 µM [inhibitor, partial curve]"},
      {"smiles": "O=C(COc1ccccc1)N1CCCN(c2cc(-c3ccc(Cl)cc3)[nH]n2)CC1", "Potency": "inconclusive: 50.1 µM [inhibitor, partial curve, poor fit]"},
      {"smiles": "COCCN1CCCCCC(O)c2cc(C(=O)NCc3cc(F)cc(F)c3)ccc21", "note": "(configuration not stated)", "Potency": "inconclusive: 89.1 µM [inhibitor, partial curve, poor fit]"},
      {"smiles": "CCOc1ccccc1CNC(=O)c1cc2sc(C)c(CN3CCOCC3)c2[nH]1", "Potency": "inconclusive: 100 µM [inhibitor, single point]"},
      {"smiles": "O=C(NC1CN(c2ccnc3ccnn23)C1)c1ccc(Cl)cc1", "activity change, negative = cytotoxicity": "inactive: -19.2% [at 172 µM]"},
      {"smiles": "O=C1CN(C(=O)CCC(=O)N2CCC(CCOc3ccccc3F)C2)c2ccccc2N1", "note": "(configuration not stated)", "Potency": "inconclusive: 56.2 µM [inhibitor, partial curve, poor fit]"},
      {"smiles": "COc1ccc(-c2nnc(C[C@@H]3C[C@@H](C(C)C)[C@H](CNc4ccccn4)C=C3C)o2)cc1", "Potency": "active: 25.1 µM"},
      {"smiles": "CC1CCN([C@@H]2[C@H](O)[C@H](CO)O[C@@H]2CNC(=O)c2ccc(F)c(Cl)c2)CC1", "activity change, negative = cytotoxicity": "inactive: -19.8%"},
      {"smiles": "O=C(NCCCc1ccccc1)c1nc2cccnc2n(CCc2ccccc2)c1=O", "Potency": "inconclusive: 50.1 µM [inhibitor, partial curve, poor fit]"},
      {"smiles": "O=C(Cc1ccsc1)Nc1cnc(-c2ccccc2)nc1", "Potency": "inconclusive: 89.1 µM [inhibitor, single point]"},
      {"smiles": "COc1ccc(C(=O)N2CCCn3ccnc3C2c2cnn(C)c2)cn1", "note": "(configuration not stated)", "activity change, negative = cytotoxicity": "inactive: 0.832%"},
      {"smiles": "COC(=O)CNC(=O)C1CCCN(c2nccc(Nc3ccccc3OC)n2)C1", "note": "(configuration not stated)", "activity change, negative = cytotoxicity": "inactive: -8.72%"},
      {"smiles": "CCN1c2cc(C(=O)Nc3ccc(F)c(F)c3)ccc2C(=O)N2CCCC21", "note": "(configuration not stated)", "Potency": "inconclusive: 100 µM [inhibitor, single point]"},
      {"smiles": "CCN1c2cc(C(=O)NCc3cccc(C)c3)ccc2C(=O)N2CCCCCC21", "note": "(configuration not stated)", "Potency": "inconclusive: 50.1 µM [inhibitor, partial curve, poor fit]"},
      {"smiles": "Cc1nn(-c2ccccc2)c2c1C(C)N(C1CCN(C(=O)c3ccccc3Cl)C1)C2=O", "note": "(configuration not stated)", "Potency": "inconclusive: 50.1 µM [inhibitor, partial curve, poor fit]"},
      {"smiles": "Cc1ccc(C2=NC3(CCN(C(=O)c4cccc(C)c4)CC3)ON2)cc1", "Potency": "inconclusive: 89.1 µM [inhibitor, partial curve]"},
      {"smiles": "O=C1NCCCCCCN(C(=O)c2cc3ccccc3[nH]2)[C@H]2CCC[C@@H]12", "Potency": "inconclusive: 89.1 µM [inhibitor, single point]"},
      {"smiles": "CCn1ncc(CN2CCCC(C(=O)N3CCN(c4ccccn4)CC3)CCNC(=O)CC2)c1C", "note": "(configuration not stated)", "activity change, negative = cytotoxicity": "inactive: -3.52%"},
      {"smiles": "CCCNC(=O)N(C1CCOCC1)C1CCN(C(=O)c2cc(Cl)ccc2OC)CC1", "activity change, negative = cytotoxicity": "inactive: -13.6%"},
      {"smiles": "Cc1ccc(C(=O)N2CCC3(CC2)CC(=O)N(c2ccccc2)c2ccccc2O3)cc1", "Potency": "inconclusive: 70.8 µM [inhibitor, partial curve]"}
    ]}
  ]
}
